Results reported in PubChem BioAssay AID1745853 (National Center for Advancing Translational Sciences (NCATS), 2022).
The list shows a part of the results. The main result of the screen is listed elsewhere. These columns were measured beside it and carry no call.

Tests used:
Experiment in all cases: Primary Screen for Target Class Profiling of Small Molecule Inhibitors of Methyltransferases
[1] = target: Glycine N-methyltransferase (Homo sapiens) (UniProt Q14749); conditions: purified enzyme, MTase-Glo SAH luminescence; measured here: GNMT inhibition; at 40 µM; stronger effect = lower value
Outline: (§1)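 Each enzyme was assayed with SAM and its substrate. SAH formation detected by MTase-Glo luminescence; single-point 40 uM screen[…].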

[2] = target: Guanidinoacetate N-methyltransferase (Homo sapiens) (UniProt Q14353); conditions: purified enzyme, MTase-Glo SAH luminescence; measured here: GAMT inhibition; at 40 µM; stronger effect = lower value
Outline: as §1

[3] = target: Histamine N-methyltransferase (Homo sapiens) (UniProt P50135); conditions: purified enzyme, MTase-Glo SAH luminescence; measured here: HNMT inhibition; at 40 µM; stronger effect = lower value
Outline: as §1

[4] = target: Nicotinamide N-methyltransferase (Homo sapiens) (UniProt P40261); conditions: purified enzyme, MTase-Glo SAH luminescence; measured here: NNMT inhibition; at 40 µM; stronger effect = lower value
Outline: as §1

[5] = target: Phenylethanolamine N-methyltransferase (Homo sapiens) (UniProt P11086); conditions: purified enzyme, MTase-Glo SAH luminescence; measured here: PNMT inhibition; at 40 µM; stronger effect = lower value
Outline: as §1
% is set by controls: 0 for no effect and ±100 for the full control effect.

Compound | activity change, negative = inhibition [1] [%] | activity change, negative = inhibition [2] [%] | activity change, negative = inhibition [3] [%] | activity change, negative = inhibition [4] [%] | activity change, negative = inhibition [5] [%]
Cc1noc(CN2C[C@H](NC(=O)CNS(C)(=O)=O)[C@@H](C3CC3)C2)n1 | -2.09 | -4.45 | -0.438 | -3.91 | 1.13
COc1ccc(CN2C(=O)c3cc(-c4ccco4)nn3CC2(C)C(=O)NC2CCCCCC2)cc1 (stereo not drawn) | 3.51 | 1.83 | 9.55 | 4.35 | 2.23
C=C1CCC2[C@@](C)(C=O)CCC[C@]2(C)[C@H]1CC/C(C)=C/CO (stereo partly drawn) | -6.18 | -4.17 | 3.27 | -23.5 | -5.58
Cc1ccc2c(c1)c(-n1cccc1)c1n2CC(C)(C(=O)NC2CCCCC2)N(Cc2ccccn2)C1=O (stereo not drawn) | -15.1 | -1.43 | -12.2 | -32.7 | -8.5
CCCn1c(=O)c2ccc(C(=O)NC3CCCC3)cc2n2c(=O)n(CC(=O)NC(C)(C)C)nc12 | 3 | 5.2 | 5.37 | -2.67 | 0.146
CC(C)(O)C1CC(=O)C2(C)C(CCC3(C)C(c4ccoc4)OC(=O)C4OC432)C12CCC(=O)OC2 (stereo not drawn) | 4.71 | 5.31 | 9.05 | -8.25 | 3.54
CC(=O)N[C@@H](CCCCN)C(=O)N(C)[C@@H](CC(C)C)C(=O)N[C@H](C(=O)N(C)[C@@H](Cc1ccccc1)C(=O)N[C@H](Cc1ccccc1)C(N)=O)C(C)C | -1.26 | 0.756 | 14 | -11.5 | 0.663
COc1ccccc1CN1C(=O)c2cc3c(OC)ccc(OC)c3n2CC1(C)C(=O)NC1CCCC1 (stereo not drawn) | 6.3 | 0 | 10.6 | 4.24 | 1.57
COc1ccc(Cl)cc1NC(=O)N1CCn2cccc2C1C (stereo not drawn) | -11 | 0.191 | -12.7 | -24 | -14
Cn1cc(CN2C[C@H](C(=O)Nc3nccs3)C[C@@H]2c2cccc(C(F)(F)F)c2)cn1 | -6.58 | 0.778 | -0.65 | -14.2 | -5.78
OCCN1CCN(C(c2ccc(Cl)cc2Cl)c2sc3nc(-c4ccco4)nn3c2O)CC1 (stereo not drawn) |  | 5.09 |  | -8.19 | 5.92
COc1ccc(-c2n[nH]n3c2nc(=O)c2ccc(C(=O)NCc4ccc(C(C)C)cc4)cc23)cc1 | 4.04 | 0.798 | 4.36 | -2.67 | -0.372
Cc1ccc(CCNC(=O)CCn2ccc3cc(S(=O)(=O)N4CCCC4)ccc32)cc1 | -1.68 | 0 | 2.87 | -5.23 | -1.89
Cn1c(=O)c2ccc(C(=O)NC3CCCC3)cc2n2c(SCC(=O)NC3CCCCC3)nnc12 | -3 | -1.23 | 4.57 | 3 | 5.51
Cc1cccc(Nc2cc(Cl)nc(SCC(=O)O)n2)c1C | -6.94 | -3.62 | 4.28 | -11.8 | 0.403
CCOc1cc2ncc(C#N)c(Nc3ccc(OCc4ccccn4)c(Cl)c3)c2cc1NC(=O)/C=C/CN(C)C | -8.19 | 11.1 | 2.37 | -9.5 | 1.93
Cc1cc(NC(=O)c2cccc(NC(=O)/C=C/CN(C)C)c2)ccc1Nc1nccc(-c2cccnc2)n1 | -93.2 | 3.63 | -83 | -11.9 | -2.74
CC1(C(=O)NC2CCCCCCC2)Cn2c(cc3occc32)C(=O)N1Cc1ccc(Cl)cc1 (stereo not drawn) | -1.5 | 0 | 1.18 | -3.22 | -0.273
CC(C)CCn1c(=O)c2ccccc2n2c(=O)n(Cc3cccc(Cl)c3)nc12 | 0.852 | 0.421 | 5.91 | -4.18 | 1.03
CC(C)Cn1c(=O)c2ccccc2n2c(CCC(=O)NCc3ccc(Cl)cc3)nnc12 | -10.2 | -3.02 | -4.78 | -12.1 | -9.62
CCCCN1C(=O)c2cc(C(=O)NCc3ccc(C)cc3)nn2CC1(C)C(=O)NC1CCCC1 (stereo not drawn) | 6.81 | 0 | 1.06 | 4.66 | 7.11
Oc1cc(CNC(=S)/C=C/c2cc(O)c(O)c(Br)c2)cc(O)c1O |  | -0.676 |  | -14.9 | 0.095
CC[C@H](C)[C@H]1O[C@]2(CC[C@@H]1C)C[C@@H]1C[C@@H](C/C=C(\C)[C@@H](O[C@H]3C[C@H](OC)[C@@H](O[C@H]4C[C@H](OC)[C@@H](O)[C@H](C)O4)[C@H](C)O3)[C@@H](C)/C=C/C=C3\CO[C@@H]4[C@H](O)C(C)=C[C@@H](C(=O)O1)[C@]34O)O2 | -1.94 |  | 6.72 |  | 
O=C(CCn1ccc2cc(S(=O)(=O)N3CCCCC3)ccc21)NC1CC1 | 4.86 | 5.94 | 7.35 | 4.45 | 4.51
OCCC1CN(c2nccc(-c3ccccn3)n2)CCN1Cc1ccoc1 (stereo not drawn) | -10.8 | -11.2 | -4.29 | -11.9 | -9.18
CC(C)n1cc(CN2C[C@@H]3C(=O)N(Cc4ccc5c(c4)OCO5)C(=O)[C@@H]3C2)c2ccccc21 | -2.83 | -7.48 | -2.45 | -8.45 | -8.04
O=C(NC1CCCC1)c1ccc(OC2CCN(C(=O)C3CCCO3)CC2)c(Cl)c1 (stereo not drawn) | -6.49 | -3.91 | -2.32 | -12.2 | -2.03
CCN(CC)C(=O)[C@@H]1C[C@@H](NC(=O)c2ccn(CC)c(=O)c2)CN1C(C)=O | -1.84 | 2.16 | 3.18 | -1.51 | -2.53
CC1(C)CCCC2(C)C=C(C(=O)O)C(O)CC12 (stereo not drawn) | 5.64 | 5.67 | 3.18 | -10 | 4.73
COc1cc(OC)c(/C=C2/C(=O)Nc3ccccc32)c(OC)c1 | -30.6 | -7.05 | -13.4 | -15.7 | -11.7
